Reference: the supplement of paper PMC3334620
The full ranking holds about 33,000 sequences; the median of “E-score (-0.5 to 0.5)” is about -0.04, and the highest 2% start at about 0.36. This is one part of the list.

target: T1, Hmlalpha2 (UniProt P0CY09); test: PBM E-score (8-mer binding enrichment) (E-score (-0.5 to 0.5)); higher = stronger / more preferred TF binding; most listed sequences are background and not binding sites; conditions: protein concentration: 200 nM; construct: GST-full length
T1 sequence: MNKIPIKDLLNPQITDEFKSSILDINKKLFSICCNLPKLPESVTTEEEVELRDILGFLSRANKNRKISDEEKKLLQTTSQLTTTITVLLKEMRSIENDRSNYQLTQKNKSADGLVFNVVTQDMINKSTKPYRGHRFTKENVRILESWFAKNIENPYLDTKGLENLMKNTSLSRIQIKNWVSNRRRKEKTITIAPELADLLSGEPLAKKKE
Summary of the method: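 Each ungapped eight-base word and its reverse complement, pooled, received an E-score from the Universal PBM Analysis Suite. Underlying scans, normalised with masliner, recorded fluorescent anti-GST bound to GST-tagged yeast transcription factors. These were applied at about 100-200 nM to universal all-10-mer Agilent arrays double-stranded by primer extension.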

| Sequence | PBM E-score |
| --- | --- |
| GACCGAAC | -0.0102 |
| GCATCGCC | -0.156 |
| ACGGGCGG | -0.257 |
| TCAGCAAA | 0.0311 |
| ATTTCCTA | 0.127 |
| AAGTTTCT | -0.0231 |
| ATCCGTCA | -0.126 |
| ACGCCTAT | -0.0198 |
| CAAGCCGG | 0.0428 |
| TCGACTCA | 0.0619 |
| AAGCTTTC | 0.0357 |
| GAGAGCGC | -0.255 |
| CGCGACCG | 0.0378 |
| GCAGTCTA | -0.189 |
| AGTTCGGG | -0.0754 |
| GCATCGTA | -0.0214 |
| ATCTGCAG | 0.093 |
| CGCAGTAA | 0.0542 |
| GAAATTAC | 0.307 |
| GCAGCTAA | -0.129 |
| CTAGCAGC | -0.0946 |
| TAAGTTCA | 0.111 |
| CACTGTTC | -0.0195 |
| CAGCTTGC | -0.0467 |
| GCGAACGC | -0.0151 |

| Sequence | PBM E-score |
| --- | --- |
| CCAGATTA | 0.171 |
| ATGTTACA | 0.401 |
| ACCCCTTG | -0.109 |
| ACTAGTTC | 0.14 |
| ATATACAG | 0.131 |
| GGTTAGTA | 0.196 |
| AAAAGTAC | 0.145 |
| ACACGGAA | 0.376 |
| CAGAGCCA | -0.114 |
| ATAGATGA | 0.00827 |
| ATCCTTAC | 0.0596 |
| AGGCTTTA | -0.12 |
| CGGGCAAA | -0.0224 |
| ACCCGTGG | -0.298 |
| ATCGATAA | -0.00464 |
| CAATATGG | -0.174 |
| AACCTACG | 0.142 |
| GTTTTGGA | 0.193 |
| CTCGACAA | 0.124 |
| AGGTACCT | -0.161 |
| GAATGATC | -0.118 |
| ACGTACCG | -0.0107 |
| CGTTCGTA | 0.187 |
| TATGGAGA | -0.109 |
| CCTGAATC | -0.0621 |

| Sequence | PBM E-score |
| --- | --- |
| ACCATACA | -0.0188 |
| GCTAAGAA | -0.156 |
| CGTAAGAG | 0.133 |
| GTTGTTAA | 0.359 |
| CTTAGCAC | 0.104 |
| GCTATAAA | 0.0343 |
| GACGAAAA | 0.2 |
| ACTGCTAC | 0.0549 |
| AGTTAGTA | 0.157 |
| CTTAGCCC | -0.163 |
| AGGATCTG | -0.22 |
| AGCCGGCT | -0.336 |
| AGCATCGG | -0.103 |
| CGTTAGCA | 0.162 |
| GGTTTCCA | -0.263 |
| AATCACCA | -0.0277 |
| AACTAAAT | -0.0256 |
| ACAGGCCC | -0.155 |
| CCACTTTC | -0.158 |
| CAGGGACG | 0.0208 |
| CGAATGGC | -0.243 |
| TCGGCCAA | -0.148 |
| GGCCACGA | -0.24 |
| CCCACTGC | -0.354 |
| CAGCCCAA | -0.0907 |

| Sequence | PBM E-score |
| --- | --- |
| TCGTGCCA | 0.0485 |
| AGTGGCGG | -0.226 |
| CGAACCGA | 0.0732 |
| TAGCTCCA | -0.0488 |
| CATTCTTC | -0.0566 |
| TACCAAAA | 0.0862 |
| GTAACGAC | -0.0196 |
| CACTAGCA | -0.0208 |
| ATGGGCTG | -0.106 |
| AGATACGA | -0.016 |
| AGAAAAAC | 0.0642 |
| TCGTCACA | 0.0612 |
| CTCTTAGA | -0.077 |
| CCGGTCCC | -0.474 |
| ATTACGAG | 0.342 |
| AGATTATG | 0.00695 |
| AATTAGCC | -0.101 |
| AGCGTGGG | -0.249 |
| CACATGCG | 0.141 |
| CCATCCCC | -0.293 |
| ACATCATA | 0.207 |
| CGGGATCC | -0.14 |
| CTTTACTA | 0.252 |
| CCGTGAAA | 0.0347 |
| GCCCCTGA | -0.167 |

| Sequence | PBM E-score |
| --- | --- |
| AACTTGCA | 0.0684 |
| ACGGTTTG | 0.0193 |
| CAATGGAA | -0.053 |
| ATAAATAA | 0.258 |
| GTGAGCCA | -0.0308 |
| CCTCTTCA | -0.233 |
| ATAAGTAA | 0.16 |
| GTACCTCA | 0.191 |
| CTAGGCAC | -0.13 |
| GCCTGATA | -0.0588 |
| AAAGGAAG | -0.141 |
| CTCGCGAA | -0.0421 |
| ACATACCG | 0.174 |
| AGCATCAT | 0.0296 |
| CAAATTTC | 0.0555 |
| TACGATAA | 0.0694 |
| AACTCGCT | 0.12 |
| GACCACTC | -0.218 |
| AGCTCGCA | -0.122 |
| ACAGTCTG | -0.159 |
| GAGAGCCC | -0.409 |
| GAGCCAGA | -0.132 |
| TCGCCCGA | -0.202 |
| CGGATAGC | -0.139 |
| CCGTCAAA | 0.0481 |

| Sequence | PBM E-score |
| --- | --- |
| GATTTGAA | 0.17 |
| ACATCGAT | 0.189 |
| ATTAGAGC | 0.123 |
| TACTCAGA | 0.0601 |
| ACTAAGGA | -0.0843 |
| CTGACTGC | -0.0336 |
| GTGGAGGA | -0.273 |
| GACACGCC | 0.146 |
| GGAAATTA | 0.137 |
| CTCAGTCA | -0.0346 |
| AGCTGGTA | -0.184 |
| AACGGGTC | -0.173 |
| AGCAAGAT | -0.0474 |
| GTTTTGTA | 0.299 |
| GACGCGAC | 0.0875 |
| CTCTTGAC | -0.0625 |
| CTCCCTTC | -0.368 |
| AATACAGA | 0.204 |
| TACTTCTA | 0.163 |
| ACGAGAGG | -0.0563 |
| CGTACATA | 0.363 |
| AAGCCGAG | -0.239 |
| GCGAATCC | -0.192 |
| ACCCGACT | -0.0515 |
| AGCGGTCA | -0.224 |

| Sequence | PBM E-score |
| --- | --- |
| TCTATTCA | 0.145 |
| CATTCGGC | -0.189 |
| GGCTGACA | -0.114 |
| AAAGGTGG | 0.00905 |
| ACGGCCTA | 0.076 |
| ACTCAGAT | -0.0191 |
| ACGATTAA | 0.142 |
| ACCTGAGC | -0.0663 |
| AGATGGCA | -0.0466 |
| TCCGCGCA | -0.0562 |
| AACTATCA | 0.0587 |
| GTATTACA | 0.403 |
| CTGCGCGC | -0.00351 |
| CGGTGCCA | -0.354 |
| AAAGCCCG | -0.197 |
| GTTCAGAA | 0.0704 |
| AATTACCG | 0.142 |
| AACATTCG | 0.099 |
| AGTGGATG | -0.0671 |
| AACAAGAA | 0.282 |
| TACCTGAA | 0.0671 |
| ACAGACCC | 0.0389 |
| CAACAGCA | 0.0842 |
| CAAACGAG | 0.179 |
| AATCATAG | 0.151 |

| Sequence | PBM E-score |
| --- | --- |
| ATATTGAA | 0.156 |
| GACCGGAC | -0.278 |
| CACGAGTC | -0.162 |
| CTCTAATC | -0.18 |
| ACCTTCGC | -0.052 |
| CAGCGGAG | -0.172 |
| ATTAAGGA | -0.184 |
| ATTCTTTG | 0.141 |
| GCTGATGA | 0.0162 |
| GCCATTCA | -0.128 |
| AGCTGCGA | -0.191 |
| CTAGTGAA | -0.0558 |
| ACCCAAAC | -0.0155 |
| ATGTCTTC | 0.169 |
| CCAGGGAC | -0.211 |
| ATCCCCAC | -0.203 |
| CAGGTCCA | -0.122 |
| CTTGCGCC | -0.0718 |
| CACCACTG | -0.19 |
| CCGACTAC | 0.00778 |
| ATCGACGA | -0.0988 |
| ACGAAGCG | -0.0556 |
| CAAAGTGG | -0.35 |
| AGTACGTA | 0.291 |
| GGTAGACC | -0.213 |

| Sequence | PBM E-score |
| --- | --- |
| GACCGACC | -0.101 |
| GTGACCGA | -0.182 |
| AGCGCCCT | -0.182 |
| AAGAGGCC | -0.402 |
| GTTCGTGA | -0.156 |
| GACTTCGC | -0.102 |
| CGCTGTTC | 0.0777 |
| CTGTTTGA | 0.0416 |
| AATGTAGG | 0.0581 |
| AGTCCCTG | -0.284 |
| CCCTAGAC | -0.219 |
| AGCTGTGG | -0.233 |
| ACCGAACG | -0.0417 |
| GCGCGAAA | 0.189 |
| GTAAAAAC | 0.385 |
| GCTCGGAA | -0.153 |
| CCTAAACG | -0.0497 |
| GCTCCCTA | -0.232 |
| AGTTTTAA | 0.169 |
